Paper PMC4764940
Results are given in words; binding and its absence hold for the method and conditions named. Binding seen in cells or lysates may run through a third protein. Some results given as binding are weak or reduced against the parent protein; the word gives no strength. For some of these results: Tags and fused reporters may be left off the sequences shown.

The chains behind the UniProt entries cited, without tags or fusion partners.
UniProt Q7Z434: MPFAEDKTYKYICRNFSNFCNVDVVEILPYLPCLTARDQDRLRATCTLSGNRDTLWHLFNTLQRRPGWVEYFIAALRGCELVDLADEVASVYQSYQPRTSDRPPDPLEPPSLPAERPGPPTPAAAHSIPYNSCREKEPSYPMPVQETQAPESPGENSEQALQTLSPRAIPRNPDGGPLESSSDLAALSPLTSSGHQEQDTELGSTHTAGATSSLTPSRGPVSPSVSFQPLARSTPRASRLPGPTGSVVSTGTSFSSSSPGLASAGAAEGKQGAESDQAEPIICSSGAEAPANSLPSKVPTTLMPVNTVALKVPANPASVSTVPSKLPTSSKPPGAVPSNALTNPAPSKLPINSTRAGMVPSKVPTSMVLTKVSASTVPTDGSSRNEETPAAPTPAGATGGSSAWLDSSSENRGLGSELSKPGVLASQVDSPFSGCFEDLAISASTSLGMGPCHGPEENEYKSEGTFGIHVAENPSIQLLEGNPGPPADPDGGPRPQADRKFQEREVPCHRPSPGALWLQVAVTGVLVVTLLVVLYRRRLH

How the values were obtained:
[1] = biological target: T1, HA-tagged pyruvate carboxylase (PC) (human) (UniProt P11498); assay: co-IP; HEK293T cells co-transfected with HA- and Flag-tagged expression plasmids for 48 h; co-immunoprecipitation and immunoblot with the indicated antibodies
T1 sequence: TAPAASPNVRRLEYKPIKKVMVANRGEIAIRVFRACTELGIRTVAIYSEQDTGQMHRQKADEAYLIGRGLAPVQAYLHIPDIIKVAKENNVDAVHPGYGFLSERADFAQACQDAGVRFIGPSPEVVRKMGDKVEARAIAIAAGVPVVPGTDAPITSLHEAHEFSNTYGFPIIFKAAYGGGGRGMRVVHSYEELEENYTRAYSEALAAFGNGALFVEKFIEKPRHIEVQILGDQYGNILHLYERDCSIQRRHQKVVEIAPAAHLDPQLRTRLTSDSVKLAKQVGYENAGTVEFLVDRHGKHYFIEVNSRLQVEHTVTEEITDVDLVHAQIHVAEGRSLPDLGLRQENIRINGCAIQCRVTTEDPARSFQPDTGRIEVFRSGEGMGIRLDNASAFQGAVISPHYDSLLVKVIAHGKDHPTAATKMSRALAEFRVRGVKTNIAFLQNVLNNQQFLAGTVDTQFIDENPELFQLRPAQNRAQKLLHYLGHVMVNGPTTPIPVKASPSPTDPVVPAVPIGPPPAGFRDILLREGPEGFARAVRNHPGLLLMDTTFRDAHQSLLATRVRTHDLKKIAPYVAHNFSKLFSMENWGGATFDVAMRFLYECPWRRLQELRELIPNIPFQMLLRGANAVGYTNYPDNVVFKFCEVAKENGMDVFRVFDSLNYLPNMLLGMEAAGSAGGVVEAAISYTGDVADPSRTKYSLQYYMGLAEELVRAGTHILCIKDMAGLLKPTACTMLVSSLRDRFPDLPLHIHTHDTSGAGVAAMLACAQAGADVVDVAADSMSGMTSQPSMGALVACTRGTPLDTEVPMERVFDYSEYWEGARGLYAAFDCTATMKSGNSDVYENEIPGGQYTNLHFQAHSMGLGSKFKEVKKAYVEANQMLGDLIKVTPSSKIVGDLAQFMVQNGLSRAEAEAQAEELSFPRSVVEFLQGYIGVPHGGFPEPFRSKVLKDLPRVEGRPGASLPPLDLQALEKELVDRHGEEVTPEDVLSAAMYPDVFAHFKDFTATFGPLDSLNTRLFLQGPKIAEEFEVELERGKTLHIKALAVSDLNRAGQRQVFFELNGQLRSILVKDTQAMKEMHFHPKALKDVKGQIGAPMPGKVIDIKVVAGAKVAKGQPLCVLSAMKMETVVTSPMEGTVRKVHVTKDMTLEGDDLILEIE

[2] = biological target: T2, endogenous pyruvate carboxylase (PC) (human (endogenous in 293T and A549)) (UniProt P11498); assay: co-IP; mitochondrial extracts of 293T cells (SeV MOI = 1 for 12 h or uninfected), mitochondria lysed in RIPA buffer; endogenous proteins, MAVS and PC antibodies
T2 sequence: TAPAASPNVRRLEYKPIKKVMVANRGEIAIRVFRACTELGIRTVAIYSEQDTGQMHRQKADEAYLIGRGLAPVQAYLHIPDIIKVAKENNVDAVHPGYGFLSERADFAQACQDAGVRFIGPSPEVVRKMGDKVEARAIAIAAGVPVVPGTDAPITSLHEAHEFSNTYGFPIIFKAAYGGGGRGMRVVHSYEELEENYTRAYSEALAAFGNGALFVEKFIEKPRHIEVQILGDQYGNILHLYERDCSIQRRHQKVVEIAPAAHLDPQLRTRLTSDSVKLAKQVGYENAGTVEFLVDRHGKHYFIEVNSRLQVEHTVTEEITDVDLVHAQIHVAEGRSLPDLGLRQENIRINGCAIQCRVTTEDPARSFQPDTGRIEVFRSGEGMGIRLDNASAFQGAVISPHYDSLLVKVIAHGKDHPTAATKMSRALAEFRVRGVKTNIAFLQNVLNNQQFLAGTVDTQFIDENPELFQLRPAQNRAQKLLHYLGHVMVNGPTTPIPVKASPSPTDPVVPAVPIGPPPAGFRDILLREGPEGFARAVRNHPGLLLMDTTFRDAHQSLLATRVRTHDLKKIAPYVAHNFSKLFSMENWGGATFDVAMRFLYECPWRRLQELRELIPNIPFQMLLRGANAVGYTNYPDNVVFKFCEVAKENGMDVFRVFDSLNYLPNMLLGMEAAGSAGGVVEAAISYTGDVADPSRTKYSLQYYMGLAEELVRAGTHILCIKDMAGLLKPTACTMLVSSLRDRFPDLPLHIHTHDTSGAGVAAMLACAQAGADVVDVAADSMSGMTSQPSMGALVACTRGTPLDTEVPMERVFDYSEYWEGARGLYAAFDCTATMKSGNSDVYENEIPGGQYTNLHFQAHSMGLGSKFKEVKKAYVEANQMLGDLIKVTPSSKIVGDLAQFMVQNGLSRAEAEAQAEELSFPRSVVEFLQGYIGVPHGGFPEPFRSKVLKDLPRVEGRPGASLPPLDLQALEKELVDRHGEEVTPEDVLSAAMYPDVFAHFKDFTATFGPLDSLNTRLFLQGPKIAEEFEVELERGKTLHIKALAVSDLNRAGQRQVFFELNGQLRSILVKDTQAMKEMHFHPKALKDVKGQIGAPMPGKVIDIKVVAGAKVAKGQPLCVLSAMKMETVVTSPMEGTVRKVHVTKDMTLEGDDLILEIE

[3] = biological target: T2, endogenous pyruvate carboxylase (PC) (human (endogenous in 293T and A549)); assay: co-IP; A549 cells transfected with PC or vector plasmids for 24 h, SeV (MOI = 1) or uninfected for 12 h; co-immunoprecipitation and immunoblot with MAVS, PC or TRAF6 antibodies
[4] = biological target: T3, Flag-tagged pyruvate carboxylase (PC) (human) (UniProt P11498); assay: co-IP; HEK293T cells co-transfected with HA- and Flag-tagged expression plasmids for 48 h; co-immunoprecipitation and immunoblot with the indicated antibodies
T3 sequence: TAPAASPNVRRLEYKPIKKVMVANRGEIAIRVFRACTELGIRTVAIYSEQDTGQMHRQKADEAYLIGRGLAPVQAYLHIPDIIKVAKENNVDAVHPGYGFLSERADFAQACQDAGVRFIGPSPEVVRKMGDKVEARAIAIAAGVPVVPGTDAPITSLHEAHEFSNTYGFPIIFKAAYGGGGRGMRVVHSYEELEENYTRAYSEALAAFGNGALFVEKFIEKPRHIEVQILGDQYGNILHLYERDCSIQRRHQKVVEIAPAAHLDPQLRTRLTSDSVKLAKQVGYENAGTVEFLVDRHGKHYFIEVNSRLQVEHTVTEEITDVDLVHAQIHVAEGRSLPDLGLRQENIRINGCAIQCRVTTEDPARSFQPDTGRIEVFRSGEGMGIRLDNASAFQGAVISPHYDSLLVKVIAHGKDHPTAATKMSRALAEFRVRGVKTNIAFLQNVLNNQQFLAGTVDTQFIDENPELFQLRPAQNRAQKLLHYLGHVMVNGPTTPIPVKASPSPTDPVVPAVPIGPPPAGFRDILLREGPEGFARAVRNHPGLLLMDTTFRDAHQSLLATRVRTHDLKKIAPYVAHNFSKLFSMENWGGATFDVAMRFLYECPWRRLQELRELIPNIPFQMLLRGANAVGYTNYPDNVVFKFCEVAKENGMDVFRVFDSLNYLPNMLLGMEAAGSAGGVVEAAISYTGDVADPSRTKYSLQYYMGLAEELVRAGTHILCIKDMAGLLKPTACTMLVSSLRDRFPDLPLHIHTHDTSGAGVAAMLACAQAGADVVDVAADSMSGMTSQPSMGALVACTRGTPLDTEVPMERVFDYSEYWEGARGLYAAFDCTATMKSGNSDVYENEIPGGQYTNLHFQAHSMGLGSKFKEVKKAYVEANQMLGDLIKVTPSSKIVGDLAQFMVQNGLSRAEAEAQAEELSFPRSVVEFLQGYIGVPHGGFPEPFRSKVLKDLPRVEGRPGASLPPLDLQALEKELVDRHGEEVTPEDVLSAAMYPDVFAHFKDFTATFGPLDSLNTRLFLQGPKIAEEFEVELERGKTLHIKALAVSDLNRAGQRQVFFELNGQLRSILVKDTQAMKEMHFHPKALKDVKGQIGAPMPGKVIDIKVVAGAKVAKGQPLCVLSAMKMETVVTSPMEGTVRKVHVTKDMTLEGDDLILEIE

## Flag-tagged MAVS (mitochondrial antiviral signaling protein) (from UniProt Q7Z434 1-540)
[1]
  binding: binds

## endogenous MAVS (from UniProt Q7Z434 1-540)
[2]
  binding: binds
[3]
  binding: binds

B1: HA-tagged TRAF6 aa 289–522 fragment (domain or fragment, UniProt Q9Y4K3 289-522)
chain: ISEVRNFQETIHQLEGRLVRQDHQIRELTAKMETQSMYVSELKRTIRTLEDKVAEIEAQQCNGIYIWKIGNFGMHLKCQEEEKPVVIHSPGFYTGKPGYKLCMRLHLQLPTAQRCANYISLFVHTMQGEYDSHLPWPFQGTIRLTILDQSEAPVRQNHEEIMDAKPELLAFQRPTIPRNPKGFGYVTFMHLEALRQRTFIKDDTLLVRCEVSTRFDMGSLRREGFQPRSTDAGV
[4]
  binding: binds

B2: HA-tagged TRAF6 aa 1-357 fragment (domain or fragment, UniProt Q9Y4K3 1-357)
chain: MSLLNCENSCGSSQSESDCCVAMASSCSAVTKDDSVGGTASTGNLSSSFMEEIQGYDVEFDPPLESKYECPICLMALREAVQTPCGHRFCKACIIKSIRDAGHKCPVDNEILLENQLFPDNFAKREILSLMVKCPNEGCLHKMELRHLEDHQAHCEFALMDCPQCQRPFQKFHINIHILKDCPRRQVSCDNCAASMAFEDKEIHDQNCPLANVICEYCNTILIREQMPNHYDLDCPTAPIPCTFSTFGCHEKMQRNHLARHLQENTQSHMRMLAQAVHSLSVIPDSGYISEVRNFQETIHQLEGRLVRQDHQIRELTAKMETQSMYVSELKRTIRTLEDKVAEIEAQQCNGIYIWKI
[4]
  binding: binds weakly

B3: HA-tagged TRAF6 aa 1-288 fragment (domain or fragment, UniProt Q9Y4K3 1-288)
chain: MSLLNCENSCGSSQSESDCCVAMASSCSAVTKDDSVGGTASTGNLSSSFMEEIQGYDVEFDPPLESKYECPICLMALREAVQTPCGHRFCKACIIKSIRDAGHKCPVDNEILLENQLFPDNFAKREILSLMVKCPNEGCLHKMELRHLEDHQAHCEFALMDCPQCQRPFQKFHINIHILKDCPRRQVSCDNCAASMAFEDKEIHDQNCPLANVICEYCNTILIREQMPNHYDLDCPTAPIPCTFSTFGCHEKMQRNHLARHLQENTQSHMRMLAQAVHSLSVIPDSGY
[4]
  binding: no binding

B4: HA-tagged TRAF6 aa 358–522 fragment (domain or fragment, UniProt Q9Y4K3 358-522)
chain: GNFGMHLKCQEEEKPVVIHSPGFYTGKPGYKLCMRLHLQLPTAQRCANYISLFVHTMQGEYDSHLPWPFQGTIRLTILDQSEAPVRQNHEEIMDAKPELLAFQRPTIPRNPKGFGYVTFMHLEALRQRTFIKDDTLLVRCEVSTRFDMGSLRREGFQPRSTDAGV
[4]
  binding: binds
